Some of the results follow.

Assay [1] deals with HSkMC (human skeletal muscle cells). Description: cytotoxicity call (relative viability < 0.9). The note with it: 10 µM.
Assay [2] relates to HepG2. Description: cytotoxicity call (relative viability < 0.9). The note with it: 10 µM.
The test system of assay [3] is S. aureus RN4220. Description: growth inhibition call (relative growth <= 0.2). The note with it: 50 µM.

For the compound `O=C(CCC(=O)N1CCOCC1)Nc1c(F)c(F)nc(N2CCOCC2)c1F`, the cytotoxicity call in assay [1] and in assay [2] was “inactive” throughout. Moreover, the growth inhibition call in assay [3] was “inactive”.

In the case of `COc1ccc(S(=O)(=O)Nc2ccc3c(c2)CC(=O)N([C@H](C)CO)C[C@@H](C)[C@H](CN(C)Cc2ccc(-c4ccccc4)cc2)O3)cc1`, the cytotoxicity call in assay [1] and in assay [2] was “active” in each case. The growth inhibition call in assay [3] was “inactive”.

Consider `COCC(=O)N1C[C@@H](C)[C@H](OC)CN(C)C(=O)c2ccc(NC(=O)c3ccc(OC)cc3)cc2OC[C@H]1C`, for which the cytotoxicity call in assay [1] and in assay [2] was “inactive” throughout. In assay [3], the growth inhibition call was “inactive”.

Regarding `C[C@@H]1CN([C@H](C)CO)C(=O)c2cc(NS(C)(=O)=O)ccc2O[C@@H](C)CCCCO[C@@H]1CN(C)S(C)(=O)=O`, the cytotoxicity call in assay [1] and in assay [2] was “inactive” in each case. For the same compound, the growth inhibition call in assay [3] was “inactive”.

Take `C[C@@H]1CCCCO[C@@H](CN(C)C(=O)Nc2ccc(F)cc2)[C@@H](C)CN([C@@H](C)CO)C(=O)c2cc(NC(=O)Nc3cccc4ccccc34)ccc2O1`: the cytotoxicity call in assay [1] and in assay [2] was “inactive” each time. Also, the growth inhibition call in assay [3] was “inactive”.

For `CC(C)NC(=O)N(C)C[C@@H]1Oc2cc(C#Cc3ccc(F)cc3)ccc2S(=O)(=O)N([C@H](C)CO)C[C@@H]1C`, the cytotoxicity call in assay [1] and in assay [2] was “inactive” in each case. The growth inhibition call in assay [3] was “inactive”.

As to `C[C@H](CO)N1C[C@H](C)[C@@H](CN(C)S(=O)(=O)c2cccc(F)c2)Oc2ncc(-c3cccc(C(=O)N(C)C)c3)cc2C1=O`, the cytotoxicity call in assay [1] and in assay [2] was “inactive” in each case. Besides, the growth inhibition call in assay [3] was “inactive”.

As to `COc1ccc(NC(=O)Nc2ccc3c(c2)C(=O)N([C@@H](C)CO)C[C@H](C)[C@@H](CN(C)S(=O)(=O)c2c(C)noc2C)OCCCC[C@@H](C)O3)cc1`, the cytotoxicity call in assay [1] and in assay [2] was “inactive” in each case. Further, the growth inhibition call in assay [3] is “inactive”.

On to `C[C@H](CO)N1C[C@H](C)[C@H](CN(C)Cc2ccc(-c3ccccc3)cc2)Oc2c(NC(=O)c3nc4ccccc4s3)cccc2C1=O`, for which the cytotoxicity call in assay [1] and in assay [2] was “inactive” throughout. The growth inhibition call in assay [3] was “inactive”.

As to `OC[C@H]1O[C@H](O)C[C@@H](O)[C@@H]1O`, the cytotoxicity call in assay [1] and in assay [2] was “inactive” in each case. In addition, in assay [3], the growth inhibition call was “inactive”.

Consider `CCOC(=O)Nc1ccc(NCc2ccc(F)cc2)nc1N.O=C(O)C=CC(=O)O`, for which the cytotoxicity call in assay [1] and in assay [2] was “inactive” each time. Also, in assay [3], the growth inhibition call is “inactive”.

For the compound `C[C@H](CO)N1C[C@H](C)[C@@H](CN(C)Cc2ccc(Oc3ccccc3)cc2)Oc2ccc(NS(=O)(=O)c3ccc(F)cc3)cc2CC1=O`, the cytotoxicity call in assay [1] and in assay [2] was “inactive” each time. The growth inhibition call in assay [3] is “inactive”.

Consider `COC[C@@H](O)CSc1[nH]c(C)nc1[N+](=O)[O-]`, for which the cytotoxicity call in assay [1] and in assay [2] was “inactive” throughout. The growth inhibition call in assay [3] was “inactive”.

Take `COc1ccc(S(=O)(=O)Nc2ccc3c(c2)C(=O)N([C@@H](C)CO)C[C@@H](C)[C@H](CN(C)S(=O)(=O)c2cn(C)cn2)OCCCC[C@H](C)O3)cc1`: the cytotoxicity call in assay [1] and in assay [2] was “inactive” in each case. The growth inhibition call in assay [3] is “inactive”.

For the compound `C[C@H]1CN([C@@H](C)CO)C(=O)c2c(c3ccccc3n2C)-c2ccccc2CO[C@@H]1CN(C)C(=O)Nc1ccccc1`, the cytotoxicity call in assay [1] and in assay [2] was “inactive” in each case. Further, the growth inhibition call in assay [3] is “inactive”.

On to `Cc1noc(C)c1NC(=O)Nc1ccc2c(c1)C(=O)N([C@H](C)CO)C[C@H](C)[C@H](CN(C)S(=O)(=O)c1ccc(Cl)cc1)OCCCC[C@@H](C)O2`, for which the cytotoxicity call in assay [1] and in assay [2] was “inactive” throughout. Also, the growth inhibition call in assay [3] is “inactive”.

Take `C[C@H](CO)N1C[C@H](C)[C@H](CN(C)S(=O)(=O)c2cn(C)cn2)Oc2ncc(/C=C/c3ccccc3)cc2C1=O`: the cytotoxicity call in assay [1] and in assay [2] was “inactive” in each case. Besides, the growth inhibition call in assay [3] was “inactive”.

For `C[C@@H]1CN([C@H](C)CO)C(=O)Cc2cc(NC(=O)NC3CCCCC3)ccc2O[C@@H]1CN(C)C(=O)Nc1cccc2ccccc12`, the cytotoxicity call in assay [1] and in assay [2] was “inactive” each time. For the same compound, the growth inhibition call in assay [3] was “inactive”.

Consider `CC(C)NC(=O)N(C)C[C@@H]1Oc2ccc(NC(=O)NC3CCCCC3)cc2C(=O)N([C@H](C)CO)C[C@H]1C`, for which the cytotoxicity call in assay [1] and in assay [2] was “inactive” throughout. Besides, in assay [3], the growth inhibition call was “inactive”.

In the case of `C[C@@H]1CCCCO[C@@H](CN(C)S(=O)(=O)c2cccs2)[C@@H](C)CN([C@H](C)CO)C(=O)c2cc(NC(=O)c3ccccc3)ccc2O1`, the cytotoxicity call in assay [1] and in assay [2] was “inactive” in each case. In addition, the growth inhibition call in assay [3] is “inactive”.

Take `C[C@H]1CCCCO[C@H](CN(C)C(=O)C2CCCCC2)[C@@H](C)CN([C@@H](C)CO)C(=O)c2cc(NC(=O)Nc3ccc4c(c3)OCO4)ccc2O1`: the cytotoxicity call in assay [1] and in assay [2] was “inactive” each time. In addition, the growth inhibition call in assay [3] is “inactive”.

With `O=C(C[C@@H]1C/C=C/C[C@H](Cc2ccccc2)C(=O)N[C@H](c2ccccc2)COC1=O)NCc1ccc(Cl)cc1`, the cytotoxicity call in assay [1] is “inactive”. Also, in assay [2], the cytotoxicity call is “active”. Besides, in assay [3], the growth inhibition call was “inactive”.

Regarding `Cc1noc(C)c1S(=O)(=O)N(C)C[C@H]1Oc2ccc(NC(=O)Nc3ccccc3)cc2C(=O)N([C@H](C)CO)C[C@@H]1C`, the cytotoxicity call in assay [1] and in assay [2] was “inactive” each time. Also, the growth inhibition call in assay [3] is “inactive”.

Consider `Nc1nonc1C(=O)N1CCCCC1`, for which the cytotoxicity call in assay [1] and in assay [2] was “inactive” throughout. Moreover, the growth inhibition call in assay [3] was “inactive”.

Regarding `CS(=O)(=O)Nc1ccc2c(c1)[C@@H]1C[C@H](CC(=O)NCc3ccc(-c4ccccc4)cc3)O[C@@H](CO)[C@@H]1O2`, the cytotoxicity call in assay [1] and in assay [2] was “inactive” in each case. Also, the growth inhibition call in assay [3] is “inactive”.

For the origin of these results see the antibiotic and cytotoxicity screens of Wong et al. (2023).
